{"source": "paper PMC12820563", "note": "The list shows a part of the results. The list includes weakly bound sequences."}
{"biological_target": "T1, MBP-FoxP3dN (UniProt Q99JB6)", "T1 sequence": "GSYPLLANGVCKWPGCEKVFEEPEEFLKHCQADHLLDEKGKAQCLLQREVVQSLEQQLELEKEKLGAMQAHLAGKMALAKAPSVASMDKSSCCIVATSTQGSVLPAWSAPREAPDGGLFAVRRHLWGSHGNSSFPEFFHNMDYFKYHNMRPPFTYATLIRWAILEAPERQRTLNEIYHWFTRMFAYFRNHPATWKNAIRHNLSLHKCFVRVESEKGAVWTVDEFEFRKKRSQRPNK", "assay": "PD-seq (MBP pull-down with sequencing)", "conditions": "20 mM Tris-HCl pH 7.5, 100 mM NaCl, 1.5 mM MgCl2, 0.4 uM protein, 0.1 uM dsDNA library, 30 min, room temperature, amylose pull-down; high values mean tight binding; double strand, one strand shown"}
{"sequence": "GATGATTGTTCTCCCAGCTGATGAATTCCGGTGCTCGAGTAAACAAATTTTCCTAATCTTTCTGTTCAAGCGCCATCTAC", "binding signal (RPM ratio (pull-down/input))": 0.487}
{"sequence": "GATGATTGTTCTCCCAGCTGATGAATTGAGGCTGTCGAGTAAACAAATTTTCCTAATCTTTCTGTTCAAGCGCCATCTAC", "binding signal (RPM ratio (pull-down/input))": 0.873}
{"sequence": "GATGATTGTTCTCCCAGCTGATGAATTTGACTATTCGAGTAAACAAATTTTCCTAATCTTTCTGTTCAAGCGCCATCTAC", "binding signal (RPM ratio (pull-down/input))": 0.671}
{"sequence": "GATGATTGTTCTCCCAGCTGATGAATTGAACCGTTCGAGTAAACAAATTTTCCTAATCTTTCTGTTCAAGCGCCATCTAC", "binding signal (RPM ratio (pull-down/input))": 0.344}
{"sequence": "GATGATTGTTCTCCCAGCTGATGAATTAGCGAACTCGAGTAAACAAATTTTCCTAATCTTTCTGTTCAAGCGCCATCTAC", "binding signal (RPM ratio (pull-down/input))": 0.248}
{"sequence": "GATGATTGTTCTCCCAGCTGATGAATTAGATTGTTCGAGTAAACAAATTTTCCTAATCTTTCTGTTCAAGCGCCATCTAC", "binding signal (RPM ratio (pull-down/input))": 3.18}
{"sequence": "GATGATTGTTCTCCCAGCTGATGAATTCTAAATTTCGAGTAAACAAATTTTCCTAATCTTTCTGTTCAAGCGCCATCTAC", "binding signal (RPM ratio (pull-down/input))": 0.264}
{"sequence": "GATGATTGTTCTCCCAGCTGATGAATTACGGCCATCGAGTAAACAAATTTTCCTAATCTTTCTGTTCAAGCGCCATCTAC", "binding signal (RPM ratio (pull-down/input))": 1.15}
{"sequence": "GATGATTGTTCTCCCAGCTGATGAATTCTTGTTATCGAGTAAACAAATTTTCCTAATCTTTCTGTTCAAGCGCCATCTAC", "binding signal (RPM ratio (pull-down/input))": 1.65}
{"sequence": "GATGATTGTTCTCCCAGCTGATGAATTCCCCAACTCGAGTAAACAAATTTTCCTAATCTTTCTGTTCAAGCGCCATCTAC", "binding signal (RPM ratio (pull-down/input))": 0.229}
{"sequence": "GATGATTGTTCTCCCAGCTGATGAATTGTCCCCTTCGAGTAAACAAATTTTCCTAATCTTTCTGTTCAAGCGCCATCTAC", "binding signal (RPM ratio (pull-down/input))": 0.353}
{"sequence": "GATGATTGTTCTCCCAGCTGATGAATTCAGTGTTTCGAGTAAACAAATTTTCCTAATCTTTCTGTTCAAGCGCCATCTAC", "binding signal (RPM ratio (pull-down/input))": 1.93}
{"sequence": "GATGATTGTTCTCCCAGCTGATGAATTGTTCTGTTCGAGTAAACAAATTTTCCTAATCTTTCTGTTCAAGCGCCATCTAC", "binding signal (RPM ratio (pull-down/input))": 0.45}
{"sequence": "GATGATTGTTCTCCCAGCTGATGAATTAGGAGATTCGAGTAAACAAATTTTCCTAATCTTTCTGTTCAAGCGCCATCTAC", "binding signal (RPM ratio (pull-down/input))": 0.355}
{"sequence": "GATGATTGTTCTCCCAGCTGATGAATTCCAATCGTCGAGTAAACAAATTTTCCTAATCTTTCTGTTCAAGCGCCATCTAC", "binding signal (RPM ratio (pull-down/input))": 0.404}
{"sequence": "GATGATTGTTCTCCCAGCTGATGAATTAATTAGTTCGAGTAAACAAATTTTCCTAATCTTTCTGTTCAAGCGCCATCTAC", "binding signal (RPM ratio (pull-down/input))": 2.32}
{"sequence": "GATGATTGTTCTCCCAGCTGATGAATTAGTAAACTCGAGTAAACAAATTTTCCTAATCTTTCTGTTCAAGCGCCATCTAC", "binding signal (RPM ratio (pull-down/input))": 1.08}
{"sequence": "GATGATTGTTCTCCCAGCTGATGAATTTACAGAGTCGAGTAAACAAATTTTCCTAATCTTTCTGTTCAAGCGCCATCTAC", "binding signal (RPM ratio (pull-down/input))": 0.324}
